Results published in the supplement of paper PMC9446081.
Among all 39,000 compounds or so, about 220 (0.56%) showed activity. Some of the results follow.

tested on: Escherichia coli K-12 BW25113; experiment: relative growth (OD600 normalised to plate interquartile mean) (fraction); higher = less growth inhibition, active = 0.2 or less; details: 50 µM; LB; incubation time: overnight (16-24 h)
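Further: static incubation at 37 °C against the wild-type strain, values averaged over two biological replicates.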

SMILES | relative growth
Cc1ccc(S(=O)(=O)Nc2ccc3c(c2)C(=O)N([C@@H](C)CO)C[C@H](C)[C@H](CN(C)S(=O)(=O)c2cn(C)cn2)O3)cc1 | inactive: 0.997
C[C@@H]1CN([C@H](C)CO)C(=O)c2cc(NC(=O)C3CC3)ccc2O[C@@H]1CN(C)S(=O)(=O)c1ccc(Cl)cc1 | inactive: 0.994
C[C@H]1CN([C@@H](C)CO)C(=O)Cc2cc(NC(=O)CCCN(C)C)ccc2O[C@@H]1CN(C)S(=O)(=O)c1cccs1 | inactive: 1.02
C[C@@H]1CCCCO[C@@H](CN(C)S(C)(=O)=O)[C@@H](C)CN([C@@H](C)CO)C(=O)c2cc(NC(=O)CCCN(C)C)ccc2O1 | inactive: 0.99
COc1ccc(S(=O)(=O)Nc2ccc3c(c2)C(=O)N([C@@H](C)CO)C[C@H](C)[C@H](CN(C)S(=O)(=O)c2c(C)noc2C)O3)cc1 | inactive: 0.991
C[C@@H]1CN([C@H](C)CO)C(=O)c2cccc(NS(=O)(=O)c3cn(C)cn3)c2O[C@H]1CN(C)C(=O)Nc1ccccc1 | inactive: 0.995
C[C@@H]1CN([C@H](C)CO)C(=O)c2cccc(NC(=O)Nc3cccc4ccccc34)c2O[C@@H]1CN(C)Cc1ccncc1 | inactive: 0.982
O=C(C[C@@H]1CC[C@@H]2[C@H](COC[C@H](O)CN2C(=O)Nc2cccc(Cl)c2)O1)NCCCN1CCOCC1 | inactive: 0.93
CC(C)COC(=O)CNc1n[nH]c(=O)[nH]c1=O | inactive: 1.01
COCC(=O)N1CC[C@]2(CCOC2)C1 | inactive: 0.957
C[C@H](CO)N1C[C@H](C)[C@H](CN(C)C(=O)CCC(F)(F)F)OCCCC[C@H](C)Oc2ccc(NC(=O)CCC(F)(F)F)cc2C1=O | inactive: 1.01
C=CCOC(=O)[C@@H]1[C@H]2C(=O)O[C@H](c3ccccc3)[C@H](c3ccccc3)N2[C@H](c2ccc(OCCOC(=O)[C@@H]3C[C@@H]4C(=O)NCC(=O)N4[C@@H]3c3ccc(O)cc3)cc2)[C@@]12C(=O)Nc1ccccc12 | inactive: 1.07
C[C@H]1CCCCO[C@@H](CN(C)CC2CCCCC2)[C@@H](C)CN([C@@H](C)CO)C(=O)c2cc(NS(=O)(=O)c3ccccc3)ccc2O1 | inactive: 1.01
CCS(=O)(=O)N1C[C@]2(C1)CN([C@H](CO)c1c2c2ccc(cc2n1C)OC)C(=O)Nc1cccc(c1)F | inactive: 0.984
Cn1cnc(S(=O)(=O)N2C[C@H](O)COC[C@@H]3O[C@@H](CC(=O)NCc4cccc(F)c4)CC[C@H]32)c1 | inactive: 1.01
C[C@@H]1CCCCO[C@H](CN(C)C(=O)C2CCCCC2)[C@H](C)CN([C@@H](C)CO)C(=O)c2cc(NC(=O)Nc3cccc4ccccc34)ccc2O1 | inactive: 1.03
